In PMC4336329 (PLoS ONE, 2015):
The campaign covered roughly 310,000 compounds. About 2,200 (0.71%) showed an effect of 50% or more. Effects have a minus sign here. The list shows a part of the results.

target: human ether-à-go-go-related gene (hERG) potassium channel (human, UniProt Q12809); experiment: primary screen, population patch clamp on CHO cells stably expressing hERG
Sequence (Q12809 whole entry, looked up): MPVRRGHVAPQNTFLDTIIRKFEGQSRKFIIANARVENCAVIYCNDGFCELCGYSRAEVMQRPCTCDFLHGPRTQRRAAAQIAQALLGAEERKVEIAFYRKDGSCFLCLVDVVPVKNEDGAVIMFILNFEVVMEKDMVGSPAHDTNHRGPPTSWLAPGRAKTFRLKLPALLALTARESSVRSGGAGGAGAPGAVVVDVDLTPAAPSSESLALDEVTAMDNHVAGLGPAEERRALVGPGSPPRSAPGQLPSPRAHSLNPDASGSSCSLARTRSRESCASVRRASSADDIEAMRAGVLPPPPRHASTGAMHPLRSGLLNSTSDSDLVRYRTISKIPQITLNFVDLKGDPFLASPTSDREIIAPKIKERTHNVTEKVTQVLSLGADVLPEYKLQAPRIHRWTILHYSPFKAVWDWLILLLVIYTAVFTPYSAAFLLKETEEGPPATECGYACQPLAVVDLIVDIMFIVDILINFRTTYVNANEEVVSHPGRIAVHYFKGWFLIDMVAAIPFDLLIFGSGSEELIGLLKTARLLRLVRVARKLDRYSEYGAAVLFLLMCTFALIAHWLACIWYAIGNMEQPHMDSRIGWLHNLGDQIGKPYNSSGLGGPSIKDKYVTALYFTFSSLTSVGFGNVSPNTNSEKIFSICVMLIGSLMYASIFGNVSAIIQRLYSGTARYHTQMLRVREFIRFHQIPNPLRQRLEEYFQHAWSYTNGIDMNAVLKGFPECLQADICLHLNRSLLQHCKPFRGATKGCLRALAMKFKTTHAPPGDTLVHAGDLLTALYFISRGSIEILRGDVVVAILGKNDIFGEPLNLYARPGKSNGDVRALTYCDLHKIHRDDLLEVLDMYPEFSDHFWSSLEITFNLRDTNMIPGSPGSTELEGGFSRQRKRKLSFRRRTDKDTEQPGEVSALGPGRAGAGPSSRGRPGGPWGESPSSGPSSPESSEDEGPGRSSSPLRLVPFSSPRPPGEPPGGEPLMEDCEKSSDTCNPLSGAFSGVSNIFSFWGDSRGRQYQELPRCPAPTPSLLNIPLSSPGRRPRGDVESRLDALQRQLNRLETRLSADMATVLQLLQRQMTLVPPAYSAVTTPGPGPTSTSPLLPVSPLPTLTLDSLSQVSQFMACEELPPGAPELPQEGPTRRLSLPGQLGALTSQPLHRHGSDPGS

Structure (SMILES) | hERG current change (%, negative = inhibition) at 1uM [%]
CC(=O)Oc1ccc2c(=O)oc(-c3ccccc3C)nc2c1 | 12.8
CN(C)S(=O)(=O)c1ccc(N2CCCC2)c(C(=O)NCCc2ccc(F)cc2)c1 | 2.97
O/N=C/c1ccc(OCc2ccccc2)c(Br)c1 | 18
CC1=CC(C)(C)N2C(=O)C3(NCCc4c3[nH]c3ccccc43)c3cc(C)cc1c32 (stereo not shown) | 20.4
CCn1cc(C(=O)OCC(=O)c2cc(C)n(-c3ccc(OC(F)F)cc3)c2C)c(=O)c2ccc(C)nc21 | -2.3
CCC1CCc2sc(C(=O)N(C)CC(=O)Nc3cccc(OC)c3)cc2C1 (stereo not shown) | 9.94
COCc1[nH]nc2c1C(c1ccccc1Cl)C(C#N)=C(N)O2 (stereo not shown) | 13.1
C=CCN1C(=O)C2C3CC(=O)C(c4ccccc43)C2C1=O (stereo not shown) | 20.4
COc1ccc2oc(=O)c(C(=O)N3c4ccccc4CC3C)cc2c1 (stereo not shown) | 0.806
C=C(C)Cn1c(CNC(C)=O)nc2ccccc21 | 2.79
O=C(O)COc1ccc(Oc2ccccc2)cc1 | 5.78
Cc1cc2nc(SCCN3CCCC3)[nH]c2cc1C | 2.01
COc1ccc(CNC(=O)CN2C(=O)c3ccccc3C2=O)cc1 | -0.406
CC(=O)Nc1ccc(NC(=O)CSc2ccc(-c3ccco3)nn2)cc1 | 6.63
O=C(Nc1ccccc1N1CCOCC1)c1cc(-c2ccco2)nc2ccccc12 | 2.65
Cc1cccc(CSc2cccc3cccnc23)c1 | 5.34
NNc1cc(C(=O)O)ccc1Cl | 11
Cn1cccc1CNC(=O)Nc1ccccc1 | 4.71
COc1ccc(OC)c(S(=O)(=O)N2CCC(C(=O)NCC3CCCO3)CC2)c1 (stereo not shown) | 8.54
CN(C)C1=NC[C@H](Cc2ccccc2)N1CC1CCCCC1 | 8.53
CC(C)CN(C(=O)c1cccc(S(=O)(=O)N2CCCCC2)c1)C1CCS(=O)(=O)C1 (stereo not shown) | 9.3
O=c1[nH]c(N2CCN(Cc3ccc4c(c3)OCO4)CC2)nc2c1CCC2 | 9.05
COc1cc(S(=O)(=O)N2CCOCC2)ccc1NC(=O)CSc1n[nH]c(=O)[nH]c1=O | 7.05
CCC(NS(=O)(=O)c1ccc(C)cc1)C(=O)Nc1ccc(NC(C)=O)cc1 (stereo not shown) | -1.54
COc1ccc(C(=O)CSc2nnc(CN3CCCCC3)n2-c2ccc(F)cc2)cc1 | -15.7
COc1ccc(C(=O)N[C@H](C(=O)NCc2ccco2)C(C)C)cc1 | 10.2
Cc1ccc(CC(=O)NC2CCN(C)CC2)cc1 | 15.7
O=C(CSCc1ccccc1)N/N=C/c1ccccc1OCc1ccccc1 | 7.09

Structure (SMILES) | hERG current change (%, negative = inhibition) at 1uM [%]
OCCn1nc(-c2ccccc2)cc1-c1ccccc1 | 10.8
Cc1cc(O)c(C(C)C)cc1NC1=NS(=O)(=O)c2ccccc21 | 4.53
O=C(CCC(=O)N1CCOc2ccccc21)N1CCN(c2ccccc2)CC1 | -14.3
O=c1[nH]c(=S)n(-c2ccc(Cl)cc2)c(O)c1C=Nc1ccc(N2CCOCC2)cc1 | 11
COc1cccc(C2=NO[C@@H]3C(=O)N(c4ccc5c(c4)OCCO5)C(=O)[C@H]23)c1OC | 12.6
CC(=O)c1ccc2c(c1)C1C(Cl)C(Sc3ccccc3[N+](=O)[O-])CC1C(c1ccccc1[N+](=O)[O-])N2 (stereo not shown) | 11.1
COC(=O)c1ccc(NC(=O)COC(=O)CCC2CCCC2)cc1 | 1
CCOc1ccccc1Oc1c(C)oc2c(CN3CCN(C)CC3)c(O)ccc2c1=O | -2.34
COc1cc(Sc2ccc(C)cc2)c(OC)cc1N.Cl | 7.24
O=C(C1=C[C@H](c2csc3ccccc23)C[C@H](OCc2ccc(CO)cc2)O1)N1CCN(Cc2ccccc2)CC1 | 9.99
CC(=O)OCCN(CCOC(C)=O)c1c(C)[nH]c(=O)[nH]c1=O | 13.3
CCOc1ccc(C(=O)NCC(=O)N2CCN(c3ccccc3O)CC2)cc1 | 0.0889
Cc1ccc(C)n1NC(=O)c1cccs1 | 8.58
CC/C=C/CC(=O)N[C@@H](c1ccccc1)[C@@H](O)C(=O)O[C@H]1C[C@@]2(O)[C@@H](OC(=O)c3ccccc3)C3[C@](C)(C(=O)[C@H](OC(C)=O)C(=C1C)C2(C)C)[C@@H](O)C[C@H]1OC[C@@]31OC(C)=O (stereo partly shown) | 11.3
[O-][n+]1c(/C=C/c2ccccc2)ccc2ccccc21 | 16.4
CCc1ccc2oc(C(=O)NC3CCS(=O)(=O)C3)cc(=O)c2c1 (stereo not shown) | 12.9
COCCNC(=O)C1CCC(Cn2c(=S)[nH]c3ccccc3c2=O)CC1 (stereo not shown) | -6.53
O=C(O)/C=C/C(=O)Nc1ccc(N2CCOCC2)nc1N1CCOCC1 | 8.86
Cc1cccc(C)c1NCc1n[nH]c(=S)n1-c1ccccc1 | 18.5
COCCCN(C(=S)NC(=O)c1ccc(C(C)(C)C)cc1)c1c(N)n(Cc2ccccc2)c(=O)[nH]c1=O | 3.27
Cc1cccn2c(=O)c3cc(C(=O)NC4CCS(=O)(=O)C4)n(Cc4ccccc4)c3nc12 (stereo not shown) | 10
O=C1c2ccc(Oc3ccc([N+](=O)[O-])cc3)cc2C(=O)N1CCO | 4.16
COc1ccc(C(=O)C2CCN(C(=O)Nc3ccc(C)cc3)CC2)cc1 | 5.45
COc1ccc2nc(C)cc(Nc3ccc(C(=O)O)cc3)c2c1 | 21.5
CC[N+](CC)(CC)CC(=O)Nc1ccc(SC(F)F)cc1.[Cl-] | 27.1
Cc1ccc(/C=C2/C(=O)NC(=O)N(C)C2=O)cc1 | 7.48
CCN(CC)Cc1cc(C(C)=O)ccc1O.Cl | 5.64
